Screen size: about 310,000 compounds; about 14,000 (4.5%) showed an effect of 50% or more. The effect is printed as a negative number. The list shows a part of the results.

The values below come from publication PMC4336329 (PLoS ONE, 2015).
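Note: peak tail current of the secondary pulse compared with the same well before compound.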

Sequence of human ether-à-go-go-related gene (hERG) potassium channel (Q12809 whole entry, looked up): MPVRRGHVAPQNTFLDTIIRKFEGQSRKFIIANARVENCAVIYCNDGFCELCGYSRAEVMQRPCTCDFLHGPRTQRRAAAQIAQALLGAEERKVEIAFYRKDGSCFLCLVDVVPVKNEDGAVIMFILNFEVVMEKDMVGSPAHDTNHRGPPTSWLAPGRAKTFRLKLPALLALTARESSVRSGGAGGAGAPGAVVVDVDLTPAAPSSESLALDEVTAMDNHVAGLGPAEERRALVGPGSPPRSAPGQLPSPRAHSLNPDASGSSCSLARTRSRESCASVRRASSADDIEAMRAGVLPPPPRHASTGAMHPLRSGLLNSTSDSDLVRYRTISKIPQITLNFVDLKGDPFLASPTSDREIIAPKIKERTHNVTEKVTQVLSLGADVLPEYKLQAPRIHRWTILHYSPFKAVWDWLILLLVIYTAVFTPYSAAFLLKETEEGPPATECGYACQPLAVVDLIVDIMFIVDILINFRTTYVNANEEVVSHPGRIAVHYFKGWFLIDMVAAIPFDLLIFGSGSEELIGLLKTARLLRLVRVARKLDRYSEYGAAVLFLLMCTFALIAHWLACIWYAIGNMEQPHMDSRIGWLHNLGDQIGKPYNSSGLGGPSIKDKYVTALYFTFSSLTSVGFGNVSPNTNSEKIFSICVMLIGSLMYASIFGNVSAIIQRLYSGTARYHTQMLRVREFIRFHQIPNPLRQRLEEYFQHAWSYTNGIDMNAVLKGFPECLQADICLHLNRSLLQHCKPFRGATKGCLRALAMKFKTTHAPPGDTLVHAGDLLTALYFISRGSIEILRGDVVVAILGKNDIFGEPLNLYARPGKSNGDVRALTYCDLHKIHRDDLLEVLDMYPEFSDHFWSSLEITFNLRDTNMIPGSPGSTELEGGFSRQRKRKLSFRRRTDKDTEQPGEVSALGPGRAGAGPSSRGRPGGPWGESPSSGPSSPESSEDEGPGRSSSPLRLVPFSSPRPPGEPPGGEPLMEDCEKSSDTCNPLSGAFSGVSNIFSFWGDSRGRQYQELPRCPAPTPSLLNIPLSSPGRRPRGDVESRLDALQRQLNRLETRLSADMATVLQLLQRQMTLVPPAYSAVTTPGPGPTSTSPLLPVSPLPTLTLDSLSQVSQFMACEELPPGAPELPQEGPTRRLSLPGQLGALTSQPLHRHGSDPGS

The assay concerns the target human ether-à-go-go-related gene (hERG) potassium channel (human, UniProt Q12809). Nature of the assay: primary screen, population patch clamp on CHO cells stably expressing hERG.
Regarding `O=C(CCC(=O)N1CCc2ccccc21)Nc1ccccc1`, the “hERG current change (%, negative = inhibition) at 10uM” value is given as -7.99%.
For `CSCC[C@H](NC(=O)[C@@H]1CSC2c3ccccc3C(=O)N21)C(=O)N1CCC[C@H]1CO` (stereo partly shown) the value was 1.52%; for `N#Cc1c(-c2cccc([N+](=O)[O-])c2)nc2n(c1=O)CCS2`, 5.37%.
In the case of `CCCCCn1ccc(=N)cc1.I` it was 11.7%.
Take `C=CCn1c(=N)n(CC(=O)c2ccc(Br)cc2)c2ccccc21`: the “hERG current change (%, negative = inhibition) at 10uM” value is reported as -43.5%.
In the case of `C#CC[N+](CC)(CC)CC#Cc1ccccc1.[Br-]` it was 9.22%.
In the case of `CC(=O)c1cccc(NC(=S)NC(=O)c2cccc(C)c2)c1` it was 17.9%; in that of `Cc1cc(C)cc(C(=O)NCC(=O)OCC(=O)NCC(F)(F)F)c1`, 24.6%; in that of `CCOc1ccc(C(CC(=O)O)NC(=O)C(c2ccccc2)c2ccccc2)cc1OC` (stereo not shown), 16.2%.
In the case of `CCCc1cc(=O)[nH]c(SCc2csc(-c3ccccc3)n2)n1` it was -7.55%.
As for `COc1ccc(NC(=O)CN(C)C(=O)c2cccc(-n3cccc3)c2)cc1`, the “hERG current change (%, negative = inhibition) at 10uM” value was -29.6%.
For `N#Cc1nc(-c2ccccc2)oc1NCC1CCCO1` (stereo not shown) the value was 7.43%; for `CCOC(=O)C1=C(N)N2C(=O)CSC2=C(C(=O)OC)C1`, 4.5%.
For `CN1CCN(c2ccc(S(=O)(=O)N3CCCCC3)cc2NC(=O)COc2cccc(Cl)c2)CC1` the value was -49.1%.
For the compound `Cc1ccc(/C=C(\C#N)C(=O)NC(C)c2ccccc2)o1` (stereo not shown), the “hERG current change (%, negative = inhibition) at 10uM” value stood at 13.6%.
For `COc1cc(Cl)ccc1OCc1cc(C(=O)NC(C)Cc2cccnc2)no1` (stereo not shown) the value was -30.7%; for `COc1ccc(C)cc1NC(=O)CCNC(=O)c1ccco1`, 8.47%; for `Cc1ccc(N2CN=c3s/c(=C\c4ccccn4)c(=O)n3C2)cc1`, -0.242%.
In the case of `COc1ccc(CN(C(=O)CO/N=C/c2ccccc2)c2ccccc2C(=O)O)cc1` it was 4.03%; in that of `COC(=O)[C@H](Cc1ccccc1)NC(=O)O[C@@H]1C(=O)c2cc(OC)ccc2O[C@H]1c1ccc(OC)c(Br)c1`, 17.9%; in that of `O=C1C(Cc2cccc([N+](=O)[O-])c2)S/C(=N/N=C/c2ccco2)N1c1ccccc1` (stereo not shown), 2.64%.
For `COc1ccc(NC(=O)C2CCC(=O)N2S(=O)(=O)c2ccc(C)cc2)c(OC)c1` (stereo not shown) the value was -11%; for `O=c1c2c(-c3ccc([N+](=O)[O-])cc3)csc2nc2n1CCCCC2`, -34.6%.
Consider `C(/C=C/c1ccco1)=N/N1CCN(c2ccccc2)CC1`, for which the “hERG current change (%, negative = inhibition) at 10uM” value turned out to be 5.24%.
For the compound `Cc1nc2sc(C(c3cccc(F)c3)N3CCCCC3)c(O)n2n1` (stereo not shown), the “hERG current change (%, negative = inhibition) at 10uM” value came to 4.79%.
For `Nc1c(C(=O)[O-])sc2nc3c(cc12)CCCC3` the value was 9.96%; for `COc1ccccc1NC(=O)C/C(C)=N/NC(=O)C12CC3CC(CC(C3)C1)C2`, 7.98%; for `Cc1cccc(C)c1OCCSc1n[nH]c(N)n1`, 8.88%.
For `C=CCN1C(=O)/C(=c2\sc3nc(=O)c(Cc4ccccc4Cl)nn3c2=O)c2ccccc21` the value was 16.7%; for `O=C(N/C(=C\c1ccccc1)C(=O)N1CCCCC1)c1ccco1`, 20%.
As to `COc1ccc(/C=C/C(=O)OCC(=O)N2CCCCCC2)c(OC)c1`, the “hERG current change (%, negative = inhibition) at 10uM” value is -16.3%.
Take `O=C(NCc1ccccc1)c1ccc2c(=O)n(CCCN3CCCC3=O)c(=S)[nH]c2c1`: the “hERG current change (%, negative = inhibition) at 10uM” value is -2.52%.
In the case of `OC(COc1ccc(Br)cc1)CN1CCN(c2ccccc2)CC1` (stereo not shown) it was -21.2%; in that of `CC(Oc1ccc(Br)cc1)C(=O)N1CCN(c2ccccn2)CC1` (stereo not shown), -29.4%.
In the case of `COc1ccc(CCNCC(=O)Nc2ccc(OC(F)F)cc2)cc1` it was -75.8%.
In the case of `O=C(O)C1=C[C@H](c2cccs2)C[C@H](OCc2ccc(CO)cc2)O1`, the “hERG current change (%, negative = inhibition) at 10uM” value is listed as -0.491%.
For `CCOC(=O)CNC(=O)N1CCC(CCOc2ccccc2)(C(=O)OCC)CC1` the value was 1.83%; for `COc1ccc(C(C)=O)cc1COC(=O)c1cnc(Cl)c(Cl)c1`, 3.03%.
`COc1ccc(C2/C=C\CN(Cc3ccncc3)CC(=O)N2Cc2ccc(F)cc2)cc1` (stereo not shown): the “hERG current change (%, negative = inhibition) at 10uM” value is -45.4%.
As to `O=C(Nc1ccc(S(=O)(=O)N2CCCCC2)cc1)c1ccco1`, the “hERG current change (%, negative = inhibition) at 10uM” value is -10.7%.
For `Cn1c(SCC(=O)Nc2nc3c(s2)CCCC3)nnc1-c1ccccc1` the value was -16.4%.
In the case of `CCN1CCN(c2nc(N)c([N+](=O)[O-])c(Nc3cccc(C)c3)n2)CC1` it was -45%; in that of `Cc1ccc(C(=O)N2CCC(C)CC2)cc1NC1=NC2CS(=O)(=O)CC2S1` (stereo not shown), 0.213%.
